Laboratory results taken from PubChem BioAssay AID588855 (National Center for Advancing Translational Sciences (NCATS), 2011).
In all, about 410,000 compounds went through this assay and about 5,000 (1.2%) were called active. The inconclusive results got no clear call from the source; some entries with a clear call stand among them for comparison. Calls follow the shape of the dose curve; as a rule, active = well fitted inhibition curve with a large enough effect; inconclusive = small, poorly fitted or top-dose-only effect; inactive = no such curve, though single readings can be large or run the other way. Where the call is inconclusive, the potency comes from a doubtful curve fit.

test: qHTS for Inhibitors of TGF-b; conditions: HepG2 CAGA-GFP TGF-b/SMAD3 reporter, GFP fluorescence, 18 h, TGF-beta stimulated, 500 pg/mL final; series mostly up to 46.1 µM; also: nearly all actives have a fitted effect of over 65% in size
Procedure, shortened: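 HEPG2 CAGA-GFP cells (1000/well, DMEM with 1% FBS) were pre-incubated 2 h at 37 degrees C, given compound by pin tool, then stimulated with TGF-beta at 500 pg/mL final for 18 h before per-cell GFP fluorescence imaging.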
Potency is read from the fitted curve at half-maximal effect; tags tell the direction and shape of the fitted curve.

Structure (SMILES) | Potency
C=C1C(=O)[C@]23C[C@H]1CCC2[C@]1(C)C(=O)CC[C@@](C)(C(=O)O)C1C[C@@H]3O (some centres not stated) | inconclusive: 7.08 µM [inhibitor, partial curve, poor fit]
Cn1nc(-c2ccc(F)cc2)nc2c(=O)n(C)c(=O)nc1-2 | active: 0.891 µM
COc1ccc(NC(=O)COc2ccc(C(=O)OCC(=O)N(C(C)C)C(C)C)cc2OC)cc1 | inconclusive: 35.5 µM [inhibitor, single point]
CCC(C(=O)NCc1ccccc1Cl)n1c(=O)c2cccn2c2ccccc21 (configuration not stated) | inconclusive: 10 µM [inhibitor, partial curve]
CN(Cc1ccc(OC(F)F)cc1)C(=O)c1cccc(S(=O)(=O)N2CCN(c3ccccc3)CC2)c1 | inactive
CC1(C(=O)Nc2ccc3c(c2)OCCO3)CCN1Cc1ccc2ccccc2c1 (configuration not stated) | inconclusive: 15.8 µM [inhibitor, single point]
Cc1cccc(-n2nnc(C(=O)NCc3ccco3)c2N)c1 | inconclusive: 35.5 µM [inhibitor, single point]
Clc1cccc(Cl)c1C1Nc2cccc3cccc(c23)N1 | inconclusive: 35.5 µM [inhibitor, single point]
O=C(C#Cc1ccccc1)Nc1ccc(F)cc1 | inconclusive: 17.8 µM [inhibitor, single point]
COc1ccc(Cc2c(C)nn(-c3nc(C)c(C(=O)Nc4cccc(C(C)=O)c4)s3)c2C)cc1 | inconclusive: 2.51 µM [inhibitor, partial curve, poor fit]
C=CC[C@@H](Cc1ccc(F)cc1)C(=O)OC[C@@H]1CCCN1C(=O)[C@@H](CC=C)CC(=O)N[C@H](CO)Cc1ccccc1 | inconclusive: 35.5 µM [inhibitor, single point]
Oc1ccc(C(=Nc2ccccc2)c2ccccc2)c(O)c1 | inactive
Cc1cccc(C)c1NC(=O)CNC(=O)Cc1c[nH]c2ccccc12 | inconclusive: 1.78 µM [inhibitor, partial curve, poor fit]
NC(c1csc(Nc2ccc(C(=O)c3ccccc3)cc2)n1)c1ccccc1Cl (configuration not stated) | inconclusive: 22.4 µM [inhibitor, single point]
CC(=O)n1nc(-c2ccccc2)nc1NCc1ccc(N(C)C)cc1 | inactive
COC(=O)C1=C(C)N(Cc2ccccc2)C(=S)N[C@H]1c1cccc(C(F)(F)F)c1 | inconclusive: 22.4 µM [inhibitor, single point]
O=C(Cn1ncc(Cl)c(Cl)c1=O)N1CCN(Cc2ccccc2)CC1 | inconclusive: 12.6 µM [inhibitor, single point]
CCN1C(=O)c2ccccc2S(=O)(=O)c2ccc(C(=O)NCc3ccc(C)cc3)cc21 | inactive
COc1ccc(CNC(=O)CCn2c(=O)c3cccn3c3ccc(F)cc32)cc1OC | inactive
O=C(c1ccc(N2CCCCC2)c([N+](=O)[O-])c1)N1CCN(c2ccccn2)CC1 | inconclusive: 1.26 µM [inhibitor, full curve, poor fit]
Cc1cccc(C)c1-n1c(C)cc(/C=N\Nc2ccc([N+](=O)[O-])cn2)c1C | inconclusive: 35.5 µM [inhibitor, single point]
O=[N+]([O-])/C(C(=C(Cl)Cl)N1CCN(Cc2ccccc2)CC1)=C1\NCCN1Cc1ccc(Cl)nc1 | inactive
COc1ccc(C)cc1S(=O)(=O)N(CC(=O)Nc1cccc([N+](=O)[O-])c1)c1ccccc1 | inconclusive: 35.5 µM [inhibitor, single point]

Structure (SMILES) | Potency
COc1ccccc1/C=N/Nc1nncc2ccccc12 | inactive
Cc1cc(OC(C)C(=O)N(Cc2ccco2)Cc2ccco2)cc(C)c1Cl (configuration not stated) | inconclusive: 35.5 µM [inhibitor, partial curve, poor fit]
Cc1cc(Cl)ccc1NNC(=O)c1c(C)noc1C | inconclusive: 3.55 µM [inhibitor, single point]
CC(C)c1ccc(NC(=O)[C@H]2O[C@@H]3OC(C)(C)O[C@@H]3[C@H]3OC(C)(C)O[C@H]32)cc1 | inconclusive: 25.1 µM [inhibitor, single point]
CC(C)N1CCCC(C)(C(=O)Nc2cccc(Oc3ccccc3)c2)C1 (configuration not stated) | inconclusive: 5.62 µM [inhibitor, single point]
O=C(C[n+]1cccc(NC(=O)c2ccccc2)c1)c1ccccc1 | inactive
CCCCCCn1c(=O)n2n(c1=O)C[C@]1(OC(=O)NC3CC3)CN(S(=O)(=O)c3ccc(C)cc3)C[C@]1(O)C2 | inactive
Cc1ccc(-c2nnc(Oc3ccc(NC(=O)c4ccccc4)cc3)c3ccccc23)cc1 | inactive
Cc1nn(C)c(C)c1CN(C)C(=O)c1nn2c(c1Br)NC(c1cccs1)CC2C(F)(F)F (configuration not stated) | inactive
CCOC(=O)C1=C(C)NC(SCC(=O)OC)=C(C#N)C1c1ccc(C(=O)OC)cc1 (configuration not stated) | inconclusive: 0.891 µM [inhibitor, full curve]
CCOC(=O)C(=Cc1ccc(Br)cc1)C(=O)OCC | active: 17.8 µM
O=C(c1cccc(N2C(=O)C3CC=CCC3C2=O)c1)N1CCN(c2ccccc2)CC1 (configuration not stated) | inconclusive: 6.31 µM [inhibitor, single point]
O=C1C2C3CCCC3=C3CCCC3C2C(=O)N1c1cccc(Cl)c1 (configuration not stated) | inconclusive: 22.4 µM [inhibitor, single point]
COCCn1c(=NC(=O)CSCC(=O)N2CCOCC2)sc2cc(C)ccc21 | inconclusive: 3.98 µM [inhibitor, single point]
CCCc1cc(=O)[nH]c(SCC(=O)Nc2cc(S(=O)(=O)N(CC)c3ccccc3)ccc2Cl)n1 | inconclusive: 35.5 µM [inhibitor, single point]
C=C1CCC[C@]2(C)C[C@H]3OC(=O)C(CNC(CC)CO)[C@H]3CC12 (some centres not stated) | inconclusive: 15.8 µM [inhibitor, partial curve, poor fit]
CCOc1ccc(/C=C2\SC(=S)N(CCCC(=O)NCCCN3CCOCC3)C2=O)cc1 | inconclusive: 35.5 µM [inhibitor, partial curve, poor fit]
COc1ccc(-n2c(C)cc(C(=O)COC(=O)c3ccc(O)cc3O)c2C)cc1 | inconclusive: 11.2 µM [inhibitor, partial curve, poor fit]
N/C(=N\OC(=O)CC1CCCCC1)c1ccc(Cl)cc1 | inconclusive: 35.5 µM [inhibitor, single point]
CN1CCN(C(=O)c2ccc(S(=O)(=O)c3ccc(Br)cc3)cc2)CC1 | inactive
NC(=O)CC(NC(=O)Cc1cccc2ccccc12)c1ccc(NCCc2ccccc2F)c([N+](=O)[O-])c1 (configuration not stated) | inconclusive: 0.562 µM [inhibitor, full curve, poor fit]
O=C(NN=Cc1ccc(Cl)cc1Cl)c1ccccc1 | inactive
Cc1cccc(NCCC(=O)c2ccc([N+](=O)[O-])cc2)c1C | inconclusive: 17.8 µM [inhibitor, single point]

Structure (SMILES) | Potency
C=CCOc1c(CNc2nccs2)cccc1OCC | inconclusive: 5.62 µM [inhibitor, full curve]
CCS(=O)(=O)N1CCC2(CC1)OC(=O)C(C)=C2C(=O)NCc1ccc(OC)c(OC)c1 | inactive
CCC(=O)N1CCN(c2ccc(NC(=O)COc3ccccc3Cl)cc2)CC1 | inconclusive: 6.31 µM [inhibitor, single point]
COC(=O)c1ccc2nc(NC(=O)CSCC(=O)OCC(=O)c3ccccc3)sc2c1 | inactive
COc1ccc(C(=O)CSC#N)cc1OC | inconclusive: 22.4 µM [inhibitor, single point]
CS(=O)(=O)c1ncc(CO)n1Cc1ccccc1 | inactive
O=C(CN(Cc1ccco1)C(=O)c1cccc(Cl)c1)Nc1c(Cl)cc(Cl)cc1Cl | inactive
Cc1nn(CC(O)CN2c3ccccc3Sc3ccccc32)c(C)c1Br (configuration not stated) | active: 12.6 µM
CCc1ccc(C=O)cc1 | inactive
O=C(Cc1cccs1)N(c1ccc(F)cc1)C1(C(=O)NC2CCCCC2)CCCC1 | inactive
COc1ccc(/C(N)=N/OC(=O)Cc2cccs2)cc1OC | inconclusive: 0.891 µM [inhibitor, full curve, poor fit]
Cc1ccc(N(CC(=O)Nc2ccc(F)c(Cl)c2)S(=O)(=O)c2c(C)noc2C)cc1 | inconclusive: 15.8 µM [inhibitor, single point]
CCc1nc2c(OCc3ccc(Cl)cc3Cl)cccn2c1N(C)C(=O)CC(C)C | inconclusive: 22.4 µM [inhibitor, single point]
O=S(=O)(NCC(c1ccco1)N1CCN(c2ccc(F)cc2)CC1)c1cc(F)ccc1F (configuration not stated) | inactive
CCCNC(=O)C1(C)CCCN(Cc2ccc3c(c2)OCO3)C1 (configuration not stated) | inactive
N#C/C(=C\c1cccn1S(=O)(=O)c1cccc([N+](=O)[O-])c1)S(=O)(=O)c1ccc(F)cc1 | inactive
COc1ccc(CN(CCC(c2ccccc2)c2ccco2)C(=O)c2ccco2)cc1 (configuration not stated) | inconclusive: 22.4 µM [inhibitor, single point]
O=[N+]([O-])c1ccc(N/N=C2/CCCCC2c2ccccn2)c([N+](=O)[O-])c1 (configuration not stated) | inconclusive: 5.62 µM [inhibitor, full curve]
Cc1ccccc1OCC(=O)Nc1ccc(S(=O)(=O)Nc2ccccn2)cc1 | inconclusive: 1.26 µM [inhibitor, partial curve, poor fit]
CN(C)S(=O)(=O)c1cccc(C(=O)OCC(=O)Nc2sccc2C(N)=O)c1 | inactive
CCOc1c(N2CCCCC2)c(=O)c1=O | inconclusive: 6.31 µM [inhibitor, single point]
